PubChem BioAssay AID1461 (National Center for Advancing Translational Sciences (NCATS), 2008)
The whole screen tested about 220,000 compounds, of which about 2,300 (1%) were called active. The inconclusive results got no clear call from the source; some entries with a clear call stand among them for comparison. Calls come from the whole dose curve; as a rule, active = well fitted inhibition curve with a large enough effect; inconclusive = small, poorly fitted or top-dose-only effect, or effect the other way; inactive = no such curve, though single readings can be large or run the other way. No potency is given beside an inconclusive call; the fits are too rough.

molecular target: Neuropeptide S receptor (Homo sapiens) (UniProt Q6W5P4); test: qHTS Assay for Antagonists of the Neuropeptide S Receptor: cAMP Signal Transduction; details: CHO-NPSR cells, cAMP TR-FRET, antagonist mode; activity change, negative = inhibition: at 38.3 µM (top of the series) unless noted; note: nearly all actives have a fitted effect of over 50% in size
Sequence of UniProt Q6W5P4 (Q6W5P4 whole entry, looked up): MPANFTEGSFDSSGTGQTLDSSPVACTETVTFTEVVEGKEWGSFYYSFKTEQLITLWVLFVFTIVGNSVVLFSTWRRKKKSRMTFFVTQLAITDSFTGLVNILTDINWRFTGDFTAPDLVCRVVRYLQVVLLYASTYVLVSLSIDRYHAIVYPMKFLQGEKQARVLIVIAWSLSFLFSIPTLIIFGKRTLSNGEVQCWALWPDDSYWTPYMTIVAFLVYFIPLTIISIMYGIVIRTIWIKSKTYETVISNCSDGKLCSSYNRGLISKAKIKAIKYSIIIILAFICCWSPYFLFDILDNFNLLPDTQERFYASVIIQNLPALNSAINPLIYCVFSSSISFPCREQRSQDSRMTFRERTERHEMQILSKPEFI
% is set by controls: 0 for no effect and ±100 for the full control effect; potency is the fitted concentration of half-maximal effect; tags give direction and shape of the fitted curve.

Question: CCN(CC)S(=O)(=O)c1cccc(NC(=O)Nc2cccc(C(F)(F)F)c2)c1 was tested. Which Potency did it give?
Answer: active: 10 µM

Question: With COc1ccc(OC)c(NC(=O)CSc2nnc(Cc3cccn3C)n2CCc2ccccc2)c1 as the molecule, how does the Potency read?
Answer: inconclusive [inhibitor, partial curve]

Question: Which Potency does the source give for CCOC(=O)N1CCc2c(sc3nc4n(c(=O)c23)N=C(c2ccc(OC)cc2)CS4)C1 here?
Answer: inconclusive [activator, single point]

Question: CC1CCc2c(C(=O)N3CCN(S(=O)(=O)c4cccs4)CC3)csc2C1 (stereo unspecified) was tested. Which Potency did it give?
Answer: inconclusive [inhibitor, single point]

Question: With CCc1ccc(NC(=O)COc2ccc(F)cc2C(=O)c2cnn(-c3ccccc3)c2)cc1 as the molecule, how does the Potency read?
Answer: inconclusive [inhibitor, single point]

Question: How did the Potency turn out when Cc1ccc2c(c1)N(CC(=O)NCc1cccs1)C(=O)CO2 was run?
Answer: inconclusive [inhibitor, single point]

Question: CCc1nc(N2CCN(Cc3ccc4c(c3)OCO4)CC2)c2oc3ccccc3c2n1 was tested. Which Potency did it give?
Answer: inconclusive [inhibitor, single point]

Question: How did the “activity change, negative = inhibition” value turn out when CC(C)CC(=O)Nc1ccc(C(=O)NNC(=S)NC(=O)C2CCCCC2)cc1 was run?
Answer: inactive: -14.2% [at 46.1 µM]

Question: How did the “activity change, negative = inhibition” value turn out when Cc1ccc(N=C2NC(=O)C(CC(=O)O)S2)cc1 (stereo unspecified) was run?
Answer: inactive: -3.82% [at 46.1 µM]

Question: Cc1[nH]c(-c2ccccn2)nc(=S)c1Cl was tested. Which “activity change, negative = inhibition” value did it give?
Answer: inactive: -24.7%

Question: Which “activity change, negative = inhibition” value does the source give for O=C(C[N+]1(CC#Cc2ccccc2)CCOCC1)c1ccccc1 here?
Answer: inactive: -1.14%

Question: For CCOc1ccc(C(=O)Nc2cc(-c3nc4ccccc4[nH]3)ccc2C)cc1[N+](=O)[O-], which Potency is on record?
Answer: inconclusive [activator, partial curve]

Question: How did the “activity change, negative = inhibition” value turn out when COc1ccc(C(=O)Nc2sc3c(c2C#N)CCN(C(C)=O)C3)cc1 was run?
Answer: inactive: 0.778%

Question: Which activity change, negative = inhibition does the source give for Cc1sc2nc(C3CC3)nc(NCCNS(C)(=O)=O)c2c1C here?
Answer: inactive: -0.347% [at 7.67 µM]

Question: With CN1C=CC=C/C1=C(\C#N)c1nc2ccccc2[nH]1 as the molecule, how does the Potency read?
Answer: inconclusive [inhibitor, single point]

Question: For COC(=O)c1cccc(NC(=O)CN(c2ccc3c(c2)OCO3)S(C)(=O)=O)c1C, which Potency is on record?
Answer: inconclusive [inhibitor, single point]

Question: With O=C(Nc1ccccc1N1CCCCC1)c1ccc(N2C(=O)c3ccccc3C2=O)cc1 as the molecule, how does the Potency read?
Answer: inconclusive [inhibitor, single point]

Question: CC(=O)c1sc(Nc2nc3ccc(F)cc3s2)nc1C was tested. Which Potency did it give?
Answer: inconclusive [inhibitor, single point]

Question: For CCNC(=S)N/N=C(\C)c1ccc2ccccc2c1OC(F)F, which Potency is on record?
Answer: inconclusive [inhibitor, single point]

Question: For C=CCn1c(COc2ccccc2F)nnc1SCC(=O)Nc1cc2oc3ccccc3c2cc1OC, which Potency is on record?
Answer: inconclusive [inhibitor, partial curve, poor fit]

Question: How did the Potency turn out when CC(NC(=O)/C(C#N)=C/c1ccc(Cl)c([N+](=O)[O-])c1)c1ccccc1 (stereo unspecified) was run?
Answer: inconclusive [inhibitor, single point]

Question: Which Potency does the source give for CCOC(=O)N1CCC(N(C(=O)Nc2ccc(Cl)c(Cl)c2)C(C)CC)CC1 (stereo unspecified) here?
Answer: inconclusive [inhibitor, single point]

Question: With COc1ccccc1N1CCN(CCCNc2c(C)c(=O)n(C)c(=O)n2C)CC1 as the molecule, how does the “activity change, negative = inhibition” value read?
Answer: inactive: 13.5% [at 46.1 µM]

Question: How did the Potency turn out when O=C1c2ccccc2-c2onc3ccc(Oc4ccccc4)c1c23 was run?
Answer: inconclusive [inhibitor, single point]

Question: How did the Potency turn out when O=C(CSc1nnc(Cc2cccs2)n1Cc1ccco1)Nc1cc(Cl)cc(Cl)c1 was run?
Answer: inconclusive [inhibitor, partial curve]

Question: With O=C(CNc1cccc(Cl)c1)NNC(=S)NCc1ccccc1 as the molecule, how does the “activity change, negative = inhibition” value read?
Answer: inactive: 0.979%

Question: Which Potency does the source give for CC1(C)Cc2ccccc2-c2c1c(=O)n(Cc1ccccc1)c1nnnn21 here?
Answer: inconclusive [inhibitor, single point]

Question: How did the Potency turn out when Cc1cc(C)c(N(C(=O)Cn2nnc3ccccc32)C(C(=O)NC(C)(C)C)c2ccsc2)c(C)c1 (stereo unspecified) was run?
Answer: inconclusive [inhibitor, single point]

Question: O=C(Nc1ccccc1Cl)c1ccc2nsnc2c1 was tested. Which Potency did it give?
Answer: inconclusive [activator, single point]

Question: How did the Potency turn out when N#Cc1nc(-c2ccc(OCc3ccccc3Cl)cc2)oc1NCCCn1ccnc1 was run?
Answer: inconclusive [activator, single point]

Question: How did the Potency turn out when Cc1c(CCOC(=O)C23CC4CC(CC(C)(C4)C2)C3)sc[n+]1CC(=O)c1ccccc1 was run?
Answer: inconclusive [activator, single point]

Question: With O=C(CCCCCN1C(=O)c2ccccc2C1=O)Nc1ccc2c(c1)OCCO2 as the molecule, how does the “activity change, negative = inhibition” value read?
Answer: inactive: -9.42% [at 46.1 µM]

Question: Which Potency does the source give for COc1ccc(C(C[N+](=O)[O-])C2(c3ccc(OC)c(OC)c3)C(=O)c3ccccc3C2=O)cc1 (stereo unspecified) here?
Answer: inconclusive [inhibitor, single point]

Question: Cc1cccc(/C=C/C(=O)c2cc(Br)ccc(=O)c2O)c1 was tested. Which Potency did it give?
Answer: active: 10 µM

Question: How did the Potency turn out when CCCCN1CN(S(=O)(=O)c2cccs2)c2nc3ccccc3nc21 was run?
Answer: inconclusive [inhibitor, single point]

Question: For CCc1nnc(NC(=O)CSc2nnc(COc3ccccc3)n2-c2ccc(C)cc2)s1, which “activity change, negative = inhibition” value is on record?
Answer: inactive: -2.73% [at 46.1 µM]

Question: For CCOC(=O)c1nn(-c2ccccc2)c(C#N)c1NC(=O)c1nn(CC)cc1Br, which Potency is on record?
Answer: inconclusive [inhibitor, partial curve]

Question: How did the Potency turn out when Cc1nc(-c2ccccc2)sc1-c1nc(-c2cccnc2)ncc1S(=O)(=O)c1ccccc1 was run?
Answer: inconclusive [inhibitor, partial curve]

Question: How did the “activity change, negative = inhibition” value turn out when COc1ccc(N2CCN(C(=O)CSc3nnc(Cn4nnc5ccccc54)n3C)CC2)cc1 was run?
Answer: inactive: -2.71% [at 46.1 µM]

Question: For Cc1cc(OCC(=O)N2CCc3ccccc3C2)c2c(-c3ccccc3)cc(=O)oc2c1, which Potency is on record?
Answer: inconclusive [inhibitor, single point]

Question: With NC[C@@H]1O[C@H](C23CC4CC(CC(C4)C2)C3)Cc2c1ccc(O)c2O as the molecule, how does the Potency read?
Answer: inconclusive [activator, single point]

Question: With O=C(NN=C1CCCC1)NC1CCCCC1 as the molecule, how does the “activity change, negative = inhibition” value read?
Answer: inactive: 15.4%

Question: How did the Potency turn out when CCOc1cc(/C=C2/C(=O)ON=C2C)ccc1OCc1ccccc1F was run?
Answer: active: 15.8 µM

Question: Which “activity change, negative = inhibition” value does the source give for COc1ccc(NC(=O)COC(=O)C(CC(C)C)N2C(=O)C3CC=CCC3C2=O)cc1Cl (stereo unspecified) here?
Answer: inactive: -11.7%

Question: How did the Potency turn out when COc1ccc(C(=O)N/N=C/c2cc3ccccc3[nH]c2=S)cc1 was run?
Answer: inconclusive [inhibitor, single point]

Question: How did the Potency turn out when CCO/C(C)=N/n1c2nc3ccccc3nc2c2c(=O)n(C3CCCC3)c(C)nc21 was run?
Answer: inconclusive [inhibitor, partial curve, poor fit]

Question: For N#CC(=C1CCCC1)c1nc(-c2ccccc2O)cs1, which Potency is on record?
Answer: inconclusive [inhibitor, partial curve, poor fit]

Question: For CC(Sc1nnc(-c2ccc(Cl)cc2Cl)n1Cc1ccccc1)C(=O)Nc1nccs1 (stereo unspecified), which Potency is on record?
Answer: inconclusive [inhibitor, single point]

Question: For COc1ccc(CNC(=O)C(c2ccncc2)N(C(=O)Cc2cccs2)c2cccc(C)c2)cc1 (stereo unspecified), which Potency is on record?
Answer: inconclusive [inhibitor, single point]

Question: COc1cccc(Cn2c(-c3nonc3N)nc3ccccc32)c1 was tested. Which “activity change, negative = inhibition” value did it give?
Answer: inactive: 5.24% [at 46.1 µM]

Question: Which Potency does the source give for CCC(=O)Nc1cc(NC(=O)CSc2ncc(-c3ccc(F)cc3)n2Cc2ccco2)ccc1C here?
Answer: inconclusive [inhibitor, partial curve, poor fit]

Question: COC(=O)c1cccc(NC(=O)Cc2ccc(OC)cc2)c1C was tested. Which “activity change, negative = inhibition” value did it give?
Answer: inactive: 3.51% [at 46.1 µM]

Question: Which Potency does the source give for CCN(CC)c1ccc(-c2nn3c(-c4ccccc4OC)nnc3s2)cc1 here?
Answer: inconclusive [activator, partial curve]

Question: Cc1onc(-c2c(Cl)cccc2Cl)c1-c1nnc(-c2ccc(Cl)cc2)o1 was tested. Which Potency did it give?
Answer: inconclusive [activator, partial curve]

Question: COc1ccc(C2CC(c3ccc4ccccc4c3)=NN2C(=O)CNC2CCCCC2)cc1 (stereo unspecified) was tested. Which Potency did it give?
Answer: inconclusive [inhibitor, single point]

Question: Which Potency does the source give for CC(C)CN=Cc1c(O)c([N+](=O)[O-])cc2oc3c(c12)CCCC3 here?
Answer: inconclusive [inhibitor, single point]

Question: For CCCNC(=O)c1ccc2c(c1)C1C3CCC(C3)C1C(c1ccccc1)N2 (stereo unspecified), which Potency is on record?
Answer: inconclusive [inhibitor, single point]

Question: For O=S(=O)(Nc1nc(SCc2ccc(Cl)cc2)n[nH]1)c1ccccc1, which Potency is on record?
Answer: inconclusive [activator, single point]

Question: With Cn1c(=O)[nH]c(=O)c2[nH]c(N(Cc3ccccc3)Cc3ccccc3)nc21 as the molecule, how does the Potency read?
Answer: inconclusive [activator, partial curve]

Question: For C=CCNC(=S)NNC(=O)c1cccc2ccccc12, which “activity change, negative = inhibition” value is on record?
Answer: inactive: -9.77% [at 46.1 µM]

Question: For O=C(Nc1cc(C(F)(F)F)cc(C(F)(F)F)c1)Nc1cnn(-c2ccc([N+](=O)[O-])cc2)c1C(F)(F)F, which Potency is on record?
Answer: inconclusive [activator, partial curve]

Question: For CC(C)c1nc2oc3c(NCc4cccnc4)ncnc3c2c2c1CCC2, which “activity change, negative = inhibition” value is on record?
Answer: inactive: -22.3% [at 46.1 µM]

Question: Which Potency does the source give for c1cc2c3c(cccc3c1)NC1(CCC3(CC1)Nc1cccc4cccc(c14)N3)N2 here?
Answer: inconclusive [activator, single point]

Question: Which Potency does the source give for CCOC(=O)c1c(C)sc2c1N(C(=O)CCl)c1cc(Cl)ccc1S2 here?
Answer: inconclusive [inhibitor, single point]

Question: Which Potency does the source give for CCCCN1C(=O)Cc2c1nc(N)c1c(N)nc(N(CCC)CCC)c(C#N)c21 here?
Answer: inconclusive [inhibitor, single point]

Question: For COC(=O)c1ccc(C(=O)OC)c(NC(=O)COC(=O)C23CC4CC(CC(O)(C4)C2)C3)c1, which Potency is on record?
Answer: inconclusive [inhibitor, single point]
